{"source": "the supplement of paper PMC11171410", "key": {"[1]": {"system": "SUDHL6 parental", "assay": "estimated IC50 (cell viability); higher = less potent"}, "[2]": {"system": "SUDHL6 venetoclax-resistant", "assay": "estimated IC50 (cell viability); higher = less potent"}}, "note": "Counter-ions that a name gives are not always drawn. Many values rest on one well or one pass, so single values are uncertain.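 Also: compound screen comparing venetoclax-resistant SUDHL6, derived by months of escalating venetoclax exposure, with its matched parental line, IC50 from one-site nonlinear dose–response fit, geometric mean for duplicated compounds.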"}
{"smiles": "C=CCNC1=C2C[C@@H](C)C[C@H](OC)[C@H](O)[C@@H](C)/C=C(\\C)[C@H](OC(N)=O)[C@@H](OC)/C=C\\C=C(/C)C(=O)NC(=CC1=O)C2=O", "note": "[Tanespimycin (17-AAG)]", "values": [{"measurement": "estimated IC50", "setting": "[1]", "result": 5.29, "unit": "µM"}, {"measurement": "estimated IC50", "setting": "[2]", "result": 2.93, "unit": "µM"}]}
{"smiles": "COc1cc([C@@H]2c3cc4c(cc3[C@@H](O[C@@H]3O[C@@H]5CO[C@@H](c6cccs6)O[C@H]5[C@H](O)[C@H]3O)[C@H]3COC(=O)[C@H]23)OCO4)cc(OC)c1O", "note": "[Teniposide]", "values": [{"measurement": "estimated IC50", "setting": "[1]", "result": 1.89, "unit": "µM"}, {"measurement": "estimated IC50", "setting": "[2]", "result": 0.86, "unit": "µM"}]}
{"smiles": "Cn1cncc1[C@@](N)(c1ccc(Cl)cc1)c1ccc2c(c1)c(-c1cccc(Cl)c1)cc(=O)n2C", "note": "[Tipifarnib]", "values": [{"measurement": "estimated IC50", "setting": "[1]", "result": 8.89, "unit": "µM"}, {"measurement": "estimated IC50", "setting": "[2]", "result": 4.06, "unit": "µM"}]}
{"smiles": "O=C1NC(=O)[C@@H](c2cn3c4c(cccc24)CCC3)[C@@H]1c1c[nH]c2ccccc12", "note": "[Tivantinib (ARQ 197)]", "values": [{"measurement": "estimated IC50", "setting": "[1]", "result": 7.7, "unit": "µM"}, {"measurement": "estimated IC50", "setting": "[2]", "result": 3.9, "unit": "µM"}]}
{"smiles": "COc1cc2nccc(Oc3ccc(NC(=O)Nc4cc(C)on4)c(Cl)c3)c2cc1OC", "note": "[Tivozanib (AV-951)]", "values": [{"measurement": "estimated IC50", "setting": "[1]", "result": "> 10", "unit": "µM"}, {"measurement": "estimated IC50", "setting": "[2]", "result": 5.58, "unit": "µM"}]}
{"smiles": "Nc1ccc(-c2ccc3ncc4ccc(=O)n(-c5cccc(C(F)(F)F)c5)c4c3c2)cn1", "note": "[Torin 2]", "values": [{"measurement": "estimated IC50", "setting": "[1]", "result": 0.19, "unit": "µM"}, {"measurement": "estimated IC50", "setting": "[2]", "result": 0.06, "unit": "µM"}]}
{"smiles": "CC(C)n1nc(-c2cc3cc(O)ccc3[nH]2)c2c(N)ncnc21", "note": "[Torkinib (PP242)]", "values": [{"measurement": "estimated IC50", "setting": "[1]", "result": 3.58, "unit": "µM"}, {"measurement": "estimated IC50", "setting": "[2]", "result": 0.87, "unit": "µM"}]}
{"smiles": "Cc1cc(Nc2cc(N3CCN(C)CC3)nc(Sc3ccc(NC(=O)C4CC4)cc3)n2)n[nH]1", "note": "[Tozasertib (VX-680, MK-0457)]", "values": [{"measurement": "estimated IC50", "setting": "[1]", "result": 8.92, "unit": "µM"}, {"measurement": "estimated IC50", "setting": "[2]", "result": 4.75, "unit": "µM"}]}
{"smiles": "CCCc1cc(C)[nH]c(=O)c1CNC(=O)c1cc(-c2ccc(N3CCN(C(C)C)CC3)nc2)cc2c1cnn2C(C)C", "note": "[UNC1999]", "values": [{"measurement": "estimated IC50", "setting": "[1]", "result": 6.67, "unit": "µM"}, {"measurement": "estimated IC50", "setting": "[2]", "result": 3.78, "unit": "µM"}]}
{"smiles": "CN1CCN(Cc2ccc(-c3cnc4[nH]cc(-c5ccc6[nH]ccc6c5)c4c3)cc2)CC1", "note": "[URMC-099]", "values": [{"measurement": "estimated IC50", "setting": "[1]", "result": 7.95, "unit": "µM"}, {"measurement": "estimated IC50", "setting": "[2]", "result": 4.05, "unit": "µM"}]}
{"smiles": "CC(C)(O)CNc1ncc(-c2ccnc(Nc3ccnc(Cl)c3)n2)c(CC2CC2)n1", "note": "[VPS34-IN1]", "values": [{"measurement": "estimated IC50", "setting": "[1]", "result": 6.68, "unit": "µM"}, {"measurement": "estimated IC50", "setting": "[2]", "result": 4.1, "unit": "µM"}]}
{"smiles": "Fc1ccc(C(OCCN2CCN(CCCc3ccccc3)CC2)c2ccc(F)cc2)cc1", "note": "[Vanoxerine dihydrochloride]", "values": [{"measurement": "estimated IC50", "setting": "[1]", "result": 7.4, "unit": "µM"}, {"measurement": "estimated IC50", "setting": "[2]", "result": 2.1, "unit": "µM"}]}
{"smiles": "CC[C@]1(O)C[C@@H]2CN(CCc3c([nH]c4ccccc34)[C@@](C(=O)OC)(c3cc4c(cc3OC)N(C)[C@H]3[C@@](O)(C(=O)OC)[C@H](OC(C)=O)[C@]5(CC)C=CCN6CC[C@]43[C@@H]65)C2)C1", "note": "[Vinblastine sulfate]", "values": [{"measurement": "estimated IC50", "setting": "[1]", "result": 0.0075, "unit": "µM"}, {"measurement": "estimated IC50", "setting": "[2]", "result": 0.0015, "unit": "µM"}]}
{"smiles": "CC[C@]1(O)C[C@H]2CN(CCc3c([nH]c4ccccc34)[C@@](C(=O)OC)(c3cc4c(cc3OC)N(C=O)[C@H]3[C@@](O)(C(=O)OC)[C@H](OC(C)=O)[C@]5(CC)C=CCN6CC[C@]43[C@@H]65)C2)C1", "note": "[Vincristine sulfate]", "values": [{"measurement": "estimated IC50", "setting": "[1]", "result": 0.008, "unit": "µM"}, {"measurement": "estimated IC50", "setting": "[2]", "result": 0.002, "unit": "µM"}]}
{"smiles": "CC[C@@H]1C(=O)N(C)c2cnc(Nc3ccc(C(=O)N[C@H]4CC[C@H](N5CCN(CC6CC6)CC5)CC4)cc3OC)nc2N1C(C)C", "note": "[Volasertib (BI 6727)]", "values": [{"measurement": "estimated IC50", "setting": "[1]", "result": 0.266, "unit": "µM"}, {"measurement": "estimated IC50", "setting": "[2]", "result": 0.064, "unit": "µM"}]}
{"smiles": "O=C(CCCCCCC(=O)Nc1ccccc1)NO", "note": "[Vorinostat (SAHA, MK0683)]", "values": [{"measurement": "estimated IC50", "setting": "[1]", "result": 3.74, "unit": "µM"}, {"measurement": "estimated IC50", "setting": "[2]", "result": 2.15, "unit": "µM"}]}
{"smiles": "c1cncc(CN2CCC(n3ncc4c(N5CCOCC5)nc(-c5ccc6[nH]ccc6c5)nc43)CC2)c1", "note": "[WAY-600]", "values": [{"measurement": "estimated IC50", "setting": "[1]", "result": 8.3, "unit": "µM"}, {"measurement": "estimated IC50", "setting": "[2]", "result": 2.2, "unit": "µM"}]}
{"smiles": "NCCCNCCS", "note": "[WR-1065 dihydrochloride]", "values": [{"measurement": "estimated IC50", "setting": "[1]", "result": 2.81, "unit": "µM"}, {"measurement": "estimated IC50", "setting": "[2]", "result": 1.47, "unit": "µM"}]}
{"smiles": "COC(=O)Nc1ccc(-c2nc(N3CCOCC3)c3cnn(C4CCN(C(=O)OC)CC4)c3n2)cc1", "note": "[WYE-354]", "values": [{"measurement": "estimated IC50", "setting": "[1]", "result": "> 10", "unit": "µM"}, {"measurement": "estimated IC50", "setting": "[2]", "result": 6.23, "unit": "µM"}]}
{"smiles": "C=CC(=O)Nc1cccc(Oc2nc(Nc3ccc(N4CCN(C)CC4)cc3)ncc2Cl)c1", "note": "[WZ3146]", "values": [{"measurement": "estimated IC50", "setting": "[1]", "result": "> 10", "unit": "µM"}, {"measurement": "estimated IC50", "setting": "[2]", "result": 4.09, "unit": "µM"}]}
{"smiles": "C=CC(=O)Nc1cccc(Oc2nc(Nc3ccc(N4CCN(C)CC4)cc3OC)ncc2Cl)c1", "note": "[WZ4002]", "values": [{"measurement": "estimated IC50", "setting": "[1]", "result": "> 10", "unit": "µM"}, {"measurement": "estimated IC50", "setting": "[2]", "result": 4.2, "unit": "µM"}]}
{"smiles": "CCC(=O)Nc1cccc(Oc2nc(Nc3ccc(N4CCN(C)CC4)cc3OC)ncc2Cl)c1", "note": "[WZ4003]", "values": [{"measurement": "estimated IC50", "setting": "[1]", "result": "> 10", "unit": "µM"}, {"measurement": "estimated IC50", "setting": "[2]", "result": 5.99, "unit": "µM"}]}
{"smiles": "C=CC(=O)Nc1cccc(Sc2nc(Nc3ccc(N4CCN(C)CC4)cc3)ncc2Cl)c1", "note": "[WZ8040]", "values": [{"measurement": "estimated IC50", "setting": "[1]", "result": 8.61, "unit": "µM"}, {"measurement": "estimated IC50", "setting": "[2]", "result": 3.67, "unit": "µM"}]}
{"smiles": "CN1C(=O)c2sccc2N(C)c2nc(Nc3ccc(S(N)(=O)=O)cc3)ncc21", "note": "[XMU-MP-1]", "values": [{"measurement": "estimated IC50", "setting": "[1]", "result": 2.51, "unit": "µM"}, {"measurement": "estimated IC50", "setting": "[2]", "result": 1.51, "unit": "µM"}]}
{"smiles": "OCCNCc1ccc(OCc2ccc(F)cc2)c(OCc2ccc(F)cc2)c1", "note": "[XRK3F2]", "values": [{"measurement": "estimated IC50", "setting": "[1]", "result": "> 10", "unit": "µM"}, {"measurement": "estimated IC50", "setting": "[2]", "result": 5.63, "unit": "µM"}]}
{"smiles": "COc1cc(O)c(CC=C(C)C)c(O)c1C(=O)/C=C/c1ccc(O)cc1", "note": "[Xanthohumol]", "values": [{"measurement": "estimated IC50", "setting": "[1]", "result": 4.27, "unit": "µM"}, {"measurement": "estimated IC50", "setting": "[2]", "result": 2.49, "unit": "µM"}]}
{"smiles": "COCC[n+]1c2c(n(Cc3cnccn3)c1C)C(=O)c1ccccc1C2=O", "note": "[YM155 (Sepantronium Bromide)]", "values": [{"measurement": "estimated IC50", "setting": "[1]", "result": 0.008, "unit": "µM"}, {"measurement": "estimated IC50", "setting": "[2]", "result": 0.003, "unit": "µM"}]}
{"smiles": "FC(F)c1nc2ccccc2n1-c1nc(N2CCOCC2)nc(N2CCOCC2)n1", "note": "[ZSTK474]", "values": [{"measurement": "estimated IC50", "setting": "[1]", "result": "> 10", "unit": "µM"}, {"measurement": "estimated IC50", "setting": "[2]", "result": 4.79, "unit": "µM"}]}
{"smiles": "C[C@H](Nc1ncnc2[nH]cnc12)c1nc2ccc(F)cc2c(=O)n1-c1ccccc1", "note": "[acalisib (GS-9820)]", "values": [{"measurement": "estimated IC50", "setting": "[1]", "result": "> 10", "unit": "µM"}, {"measurement": "estimated IC50", "setting": "[2]", "result": 0.266, "unit": "µM"}]}
{"smiles": "COc1ccc(C(=O)N2c3ccccc3Sc3ccc(Cl)cc32)cc1", "note": "[iHAP1]", "values": [{"measurement": "estimated IC50", "setting": "[1]", "result": 7.31, "unit": "µM"}, {"measurement": "estimated IC50", "setting": "[2]", "result": 4.87, "unit": "µM"}]}
